The other results are listed elsewhere or left out.
B1: PhoQ; a variant is named by its letters at X, in order, P23837 (parent)
chain: MKKLLRLFFPLSLRVRFLLATAAVVLVLSLAYGMVALIGYSVSFDKTTFRLLRGESNLFYTLAKWENNKLHVELPENIDKQSPTMTLIYDENGQLLWAQRDVPWLMKMIQPDWLKSNGFHEIEADVNDTSLLLSGDHSIQQQLQEVREDDDDAEMTHSVAVNVYPATSRMPKLTIVVVDTIPVELKSSYMVWSWFIYVLSANLLLVIPLLWVAAWWSLRPIEALAKEVRELEEHNRELLNPATTRELTSLVRNLNRLLKSERERYDKYRTTLTDLTHSLKTPLXXLQXXLRSLRSEKMSVSDAEPVMLEQISRISQQIGYYLHRASMRGGTLLSRELHPVAPLLDNLTSALNKVYQRKGVNISLDISPEISFVGEQNDFVEVMGNVLDNACKYCLEFVEISARQTDEHLYIVVEDDGPGIPLSKREVIFDRGQRVDTLRPGQGVGLAVAREITEQYEGKIVAGESMLGGARMEVIFGRQHSAPKDE

Variants of: B1
Test: enrichment ratio after two sorts for PhoP signalling (ratio (wild type AVST 3.29)); higher = more functional
Conditions: with PhoP (E. coli)

Row | Variant | enrichment ratio
1 | EHVL | ≤ 0.25
2 | QSSL | 9.11
3 | KETI | ≤ 0.25
4 | PMIK | ≤ 0.25
5 | SMNP | ≤ 0.25
6 | SRHR | ≤ 0.25
7 | KREP | ≤ 0.25
8 | TFFA | ≤ 0.25
9 | GCCN | ≤ 0.25
10 | RRSF | ≤ 0.25
11 | QSQV | ≤ 0.25
12 | DCEF | ≤ 0.25
13 | SHAE | ≤ 0.25
14 | GYAW | ≤ 0.25
15 | IYLM | ≤ 0.25
16 | YHMV | ≤ 0.25
17 | GTIS | ≤ 0.25
18 | VQNT | ≤ 0.25
19 | HWHN | ≤ 0.25
20 | VCYC | ≤ 0.25
21 | QNIY | ≤ 0.25
22 | TTDH | 0.73
23 | WEMT | ≤ 0.25
24 | TEMH | 134
25 | YNFQ | ≤ 0.25
26 | VKNF | ≤ 0.25

Row | Variant | enrichment ratio
27 | YEVM | ≤ 0.25
28 | TQDV | ≤ 0.25
29 | ICLY | ≤ 0.25
30 | AWEH | ≤ 0.25
31 | VNVK | ≤ 0.25
32 | SLAL | 10.6
33 | DSYN | ≤ 0.25
34 | QEHG | 11.2
35 | MLHF | ≤ 0.25
36 | RFTN | ≤ 0.25
37 | NACF | ≤ 0.25
38 | NKRI | ≤ 0.25
39 | KAAQ | ≤ 0.25
40 | MVND | ≤ 0.25
41 | VHHI | ≤ 0.25
42 | FAHD | ≤ 0.25
43 | PQRR | ≤ 0.25
44 | MPHF | ≤ 0.25
45 | SVCC | 16.1
46 | GHTV | ≤ 0.25
47 | EFPQ | ≤ 0.25
48 | SCMA | 15.7
49 | STHV | ≤ 0.25
50 | SYIQ | ≤ 0.25
51 | EQSV | ≤ 0.25
52 | PNNM | ≤ 0.25

Row | Variant | enrichment ratio
53 | WMWL | ≤ 0.25
54 | LIKE | ≤ 0.25
55 | MIPS | ≤ 0.25
56 | LHYF | ≤ 0.25
57 | FNGA | ≤ 0.25
58 | DINY | ≤ 0.25
59 | LNWE | ≤ 0.25
60 | RYII | ≤ 0.25
61 | AWGQ | ≤ 0.25
62 | TFWD | ≤ 0.25
63 | DSPF | ≤ 0.25
64 | KLLT | ≤ 0.25
65 | SVDY | ≤ 0.25
66 | PWCP | ≤ 0.25
67 | DYIG | ≤ 0.25
68 | YLLP | ≤ 0.25
69 | EVSQ | ≤ 0.25
70 | FQPV | ≤ 0.25
71 | IDKF | ≤ 0.25
72 | VNVI | 1.09
73 | PFAC | ≤ 0.25
74 | RRVG | ≤ 0.25
75 | DYCM | ≤ 0.25
76 | DQIG | ≤ 0.25
77 | VIGG | ≤ 0.25
78 | REAK | ≤ 0.25

Row | Variant | enrichment ratio
79 | KNPA | ≤ 0.25
80 | MMVL | 0.436
81 | KKVY | ≤ 0.25
82 | YSTH | ≤ 0.25
83 | WYVA | ≤ 0.25
84 | WEGQ | ≤ 0.25
85 | VCCN | ≤ 0.25
86 | GRFE | ≤ 0.25
87 | KMMI | ≤ 0.25
88 | REYD | ≤ 0.25
89 | HMYS | ≤ 0.25
90 | MKNA | ≤ 0.25
91 | TTKA | ≤ 0.25
92 | FDAR | ≤ 0.25
93 | FYGF | ≤ 0.25
94 | VSDL | ≤ 0.25
95 | REDV | ≤ 0.25
96 | CSAT | ≤ 0.25
97 | KEIN | ≤ 0.25
98 | YKRC | ≤ 0.25
99 | LATD | ≤ 0.25
100 | PAKD | ≤ 0.25
101 | EYAW | ≤ 0.25
102 | RSDQ | ≤ 0.25
103 | GASL | 3.66
104 | AKNK | ≤ 0.25

Row | Variant | enrichment ratio
105 | YSMN | ≤ 0.25
106 | NDVW | ≤ 0.25
107 | TSHW | ≤ 0.25
108 | KARK | ≤ 0.25
109 | WYYR | ≤ 0.25
110 | KDIR | ≤ 0.25
111 | DIPM | 2.64
112 | NFTN | ≤ 0.25
113 | QVPY | ≤ 0.25
114 | SRVQ | ≤ 0.25
115 | ELTK | ≤ 0.25
116 | FHVL | ≤ 0.25
117 | EGDC | ≤ 0.25
118 | MCNL | ≤ 0.25
119 | EPKN | ≤ 0.25
120 | EDSA | ≤ 0.25
121 | SWQV | ≤ 0.25
122 | LSTN | ≤ 0.25
123 | KTWQ | ≤ 0.25
124 | NSLF | ≤ 0.25
125 | NSNA | ≤ 0.25
126 | SHIH | ≤ 0.25
127 | MCSV | ≤ 0.25
128 | FDYI | ≤ 0.25
129 | VFQS | ≤ 0.25
130 | QNSP | ≤ 0.25

Row | Variant | enrichment ratio
131 | VNMN | ≤ 0.25
132 | RGIS | ≤ 0.25
133 | RCMT | ≤ 0.25
134 | NMHR | ≤ 0.25
135 | IVIV | ≤ 0.25
136 | TVTH | 4.6
137 | QGHW | ≤ 0.25
138 | RWGT | ≤ 0.25
139 | PGSR | ≤ 0.25
140 | FDPM | ≤ 0.25
141 | LYSW | ≤ 0.25
142 | VIRK | ≤ 0.25
143 | EGMN | ≤ 0.25
144 | KHFC | ≤ 0.25
145 | IPAF | ≤ 0.25
146 | HMRK | ≤ 0.25
147 | TASG | 9.06
148 | VEKN | ≤ 0.25
149 | DFCW | ≤ 0.25
150 | NWAM | ≤ 0.25
151 | ATWV | ≤ 0.25
152 | YEKA | ≤ 0.25
153 | QYDP | ≤ 0.25

Reference: a collection of fitness landscapes (doi:10.1126/science.1257360)
